In the supplement of paper PMC11417369:
This is one part of the list.

Test system: PF3D7_0420300 AP2 domain 1 (GST-tagged)
Assay: gcPBM binding intensity (ln(normalized median fluorescence intensity)); higher = stronger DNA binding
Procedure, shortened: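 Probes on an Agilent 4 × 180k array were primer-extended, double-stranded and 36 bp long, taken from intergenic genomic regions, with negative controls added. GST-tagged P. falciparum DNA-binding domains from E. coli, about 25 μg on average, were applied to the array for 1 h in 1× PBS containing 1% milk, 0.2 mg/ml BSA, 0.5% salmon testes DNA and 0.03% Triton X-100. Binding intensity, obtained after Alexa488 anti-GST antibody detection and a 488 nm scan, is the highest Masliner-normalised natural-log median intensity across replicate spots of either probe orientation.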

Sequence	gcPBM binding intensity (ln)
TACAACCTTATAATTAGTACTTAGTTATGCTGTAAA [XGTACX_site6052]	9.08
TTTAATTTTTTTTATAGTACATAAAAAATAAAAAAA [XGTACX_site5631]	8.75
TTTATTTGTGCATATACACACTTAAATATGTTTATT [CACACA_site7772]	9.52
ATTATAATACTTTGTATGCACTAATCAATTATTAAA	9.01
CCGATATAATGGAAAACACACAAAAGATATTTATAT [CACACA_site7293]	9.54
ACATAAAATTGGAGCAAACACACAAGGTTGAAATTA [CACACA_site505]	9.65
TTTGTTATGGTTTTCTCACACATATATATATATATA [CACACA_site4617]	9.5
CCTCATAAGTTCTTATGTACGTATTGTTCACCTTTA [XGTACX_site6640]	9.37
CTGTAAAAAATATAAACACACATAGAAATATATAAA [CACACA_site340]	9.59
TTAATAATAAAAAGGAGTACACTAATATACTATAAA [XGTACX_site2346]	9.32
TTAAGAAACAAAGAAAGTACACAACATAATATAGAA [XGTACX_site477]	9.75
ATATAATATATATATAAACACACAAAAAAAATTATA [CACACA_site8434]	9.63
AATAAAATCATCTATACACACAAAAAAAATAAGAAA [CACACA_site2101]	9.86
AATAACCACGGACACACACACATATATATATATATA [CACACA_site5873]	9.92
TATTTAAATTTGTATAATGGACGAATTATATAGAAA [GTGCAC_negctrl_site650]	9.07
CCCACAGACGGACACACACACATATATATATATATA [CACACA_site4351]	9.81
GAATTATAAATTATAGTGCATAAAATTATGGCATAA [GTGCAC_site9938]	9.03
TCAAAACATTATTCCATACACACCATACTTTTTAAT [CACACA_site2770]	9.51
TTGAATTATAAGAATAAACACACAAGCTTAAAAAAA [CACACA_site8318]	9.29
TATATATTATATATATGTACTTATTCATATATATAA [XGTACX_site3860]	9.06
CTTTAATATATTTAAGTGCAAAACTAATATGTAAAG	9.19
AAAGAAAAAGAAAAAGAAAAAATAAAATAAAATAAA [CACACA_negctrl_site872]	9.14
TATTTAAAAACAAAAAGTACTAATATATATTTATAC [XGTACX_site1422]	9.14
AGTAGTATGGAGAAAAGTACATAGTATCTGATAACC [XGTACX_site2040]	9.39
GACTGAACAACATAATGTACATTTATAAGTATATAT [XGTACX_site3813]	9.33
